According to publication PMC4361618, “Nab3 Facilitates the Function of the TRAMP Complex in RNA Processing via Recruitment of Rrp6 Independent of Nrd1” (PLoS Genetics, 2015):
No constants are given. Whether binding was seen depends on the method and setting. Binding seen in cells or lysates may run through a third protein. Some entries that bind do so weakly or less than the wild type. Where a sequence is shown, tags or fusion partners need not be part of it.

T1: TAP-tagged Dis3 (S. cerevisiae) (UniProt Q08162)
T1 sequence: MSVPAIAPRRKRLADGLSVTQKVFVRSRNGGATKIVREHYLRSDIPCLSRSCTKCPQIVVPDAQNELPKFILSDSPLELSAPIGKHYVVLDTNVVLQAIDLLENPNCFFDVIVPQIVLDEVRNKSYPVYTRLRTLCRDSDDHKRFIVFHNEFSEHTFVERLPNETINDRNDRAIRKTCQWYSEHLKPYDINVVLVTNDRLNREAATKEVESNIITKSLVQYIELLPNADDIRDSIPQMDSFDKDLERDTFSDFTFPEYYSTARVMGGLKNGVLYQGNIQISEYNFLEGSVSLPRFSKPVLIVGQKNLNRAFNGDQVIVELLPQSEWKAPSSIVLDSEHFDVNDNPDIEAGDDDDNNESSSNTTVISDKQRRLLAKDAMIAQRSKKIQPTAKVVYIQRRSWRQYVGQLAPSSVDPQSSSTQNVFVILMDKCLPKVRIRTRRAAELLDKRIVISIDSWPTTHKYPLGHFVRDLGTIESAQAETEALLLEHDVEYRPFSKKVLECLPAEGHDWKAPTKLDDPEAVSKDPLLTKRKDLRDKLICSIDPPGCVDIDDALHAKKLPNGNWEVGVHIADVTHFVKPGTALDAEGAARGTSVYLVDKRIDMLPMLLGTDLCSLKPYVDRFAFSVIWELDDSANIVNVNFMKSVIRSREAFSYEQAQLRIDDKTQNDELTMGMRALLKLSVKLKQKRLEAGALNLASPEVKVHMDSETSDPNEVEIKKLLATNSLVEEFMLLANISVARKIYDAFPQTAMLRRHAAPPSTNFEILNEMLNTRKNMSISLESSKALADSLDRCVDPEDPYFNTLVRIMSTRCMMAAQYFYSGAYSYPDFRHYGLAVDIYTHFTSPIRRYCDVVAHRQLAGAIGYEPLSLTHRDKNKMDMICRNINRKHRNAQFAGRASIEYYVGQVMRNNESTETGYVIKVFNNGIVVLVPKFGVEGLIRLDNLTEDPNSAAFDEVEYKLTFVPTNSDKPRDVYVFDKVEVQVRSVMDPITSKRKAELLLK

T2: TAP-tagged Rrp6 (S. cerevisiae) (UniProt Q12149)
T2 sequence: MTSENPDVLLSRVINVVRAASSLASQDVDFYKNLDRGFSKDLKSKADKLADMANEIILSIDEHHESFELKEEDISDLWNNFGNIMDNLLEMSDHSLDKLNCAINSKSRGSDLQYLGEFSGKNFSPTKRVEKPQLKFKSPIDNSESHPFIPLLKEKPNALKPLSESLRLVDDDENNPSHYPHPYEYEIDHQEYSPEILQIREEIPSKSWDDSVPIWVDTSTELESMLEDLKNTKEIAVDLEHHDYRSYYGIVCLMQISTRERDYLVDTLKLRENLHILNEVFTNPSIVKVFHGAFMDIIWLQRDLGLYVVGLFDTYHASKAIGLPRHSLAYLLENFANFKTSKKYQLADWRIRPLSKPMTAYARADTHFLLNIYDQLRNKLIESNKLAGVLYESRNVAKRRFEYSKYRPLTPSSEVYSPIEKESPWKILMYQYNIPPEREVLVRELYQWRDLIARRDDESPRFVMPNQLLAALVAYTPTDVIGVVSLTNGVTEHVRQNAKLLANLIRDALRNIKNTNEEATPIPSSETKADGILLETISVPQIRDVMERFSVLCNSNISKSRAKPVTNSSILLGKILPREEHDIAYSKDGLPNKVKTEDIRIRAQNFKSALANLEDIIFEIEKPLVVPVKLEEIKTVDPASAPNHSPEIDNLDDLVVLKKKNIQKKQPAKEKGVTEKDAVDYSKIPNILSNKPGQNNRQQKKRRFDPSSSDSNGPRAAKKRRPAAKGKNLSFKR

T3: TAP-tagged Nrd1 (S. cerevisiae, UniProt P53617 1-575)
T3 construct: also called Nrd1-TAP; source: S. cerevisiae NRD1-TAP strain (ACY2293; Thermo Scientific Open Biosystems), in lysate
T3 sequence (looked up): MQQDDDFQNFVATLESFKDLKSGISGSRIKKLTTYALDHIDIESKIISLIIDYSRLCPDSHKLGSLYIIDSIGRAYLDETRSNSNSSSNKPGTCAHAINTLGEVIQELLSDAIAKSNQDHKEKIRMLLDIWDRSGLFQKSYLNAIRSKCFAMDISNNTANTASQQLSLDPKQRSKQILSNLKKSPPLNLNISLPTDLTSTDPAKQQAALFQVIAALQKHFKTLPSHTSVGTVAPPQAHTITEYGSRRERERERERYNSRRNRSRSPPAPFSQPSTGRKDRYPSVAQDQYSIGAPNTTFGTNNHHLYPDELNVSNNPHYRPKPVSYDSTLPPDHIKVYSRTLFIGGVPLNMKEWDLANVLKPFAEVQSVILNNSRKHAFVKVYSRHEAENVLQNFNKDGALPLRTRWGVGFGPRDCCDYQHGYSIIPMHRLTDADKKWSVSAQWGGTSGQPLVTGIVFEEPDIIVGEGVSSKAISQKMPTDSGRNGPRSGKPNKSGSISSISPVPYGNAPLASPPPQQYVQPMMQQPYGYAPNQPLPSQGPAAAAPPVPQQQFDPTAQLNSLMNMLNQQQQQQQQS


Tests used:
[1] = target: T1, TAP-tagged Dis3 (S. cerevisiae); assay: co-IP; TAP-tagged Dis3 precipitated on IgG Sepharose beads from lysates of DIS3-TAP yeast cells expressing Myc-tagged Nab3 proteins; IPP150 buffer, overnight at 4°C; anti-Myc immunoblot
[2] = target: T2, TAP-tagged Rrp6 (S. cerevisiae); assay: co-IP; TAP-tagged Rrp6 precipitated on IgG Sepharose beads from lysates of RRP6-TAP yeast cells expressing Myc-tagged Nab3 proteins; IPP100 buffer (100 mM NaCl), overnight at 4°C; absence of RNase A; anti-Myc immunoblot
[3] = target: T2, TAP-tagged Rrp6 (S. cerevisiae); assay: co-IP; TAP-tagged Rrp6 precipitated on IgG Sepharose beads from lysates of RRP6-TAP yeast cells expressing Myc-tagged Nab3 proteins; IPP100 buffer (100 mM NaCl), overnight at 4°C; presence of RNase A (5 μl of 20 mg/ml); anti-Myc immunoblot
[4] = target: T3, TAP-tagged Nrd1; assay: co-IP; TAP-tagged Nrd1 precipitated on IgG Sepharose beads from lysates of NRD1-TAP yeast cells expressing Myc-tagged Nab3 proteins; IPP150 buffer (10 mM Tris-HCl pH 8, 150 mM NaCl, 0.1% NP-40), overnight at 4°C; anti-Myc immunoblot; % bound relative to input and to bound wild-type Nab3

Row | Binder | binding [1] | binding [2] | binding [3] | binding [4]
1 | Myc-tagged nab3-ΔNBD mutant (Δ204–248) (natural protein, S. cerevisiae, UniProt P38996 1-802, looked up, also called nab3 NBD mutant; nab3-NBD; source: S. cerevisiae (NRD1-TAP, RRP6-TAP or DIS3-TAP cells), 2μ URA3 plasmid, in lysate; not shown: 2xMyc, C-terminal, kept) MSDENHNSDVQDIPSPELSVDSNSNENELMNNSSADDGIEFDAPEEEREAEREEENEEQHELEDVNDEEEEDKEEKGEENGEVINTEEEEEEEHQQKGGNDDDDDDNEEEEEEEEDDDDDDDDDDDDEEEEEEEEEEGNDNSSVGSDSAAEDGEDEEDKKDKTKDKEVELRRETLEKEQKDVDEAIKKITREENDNTHFPTNMSDTALSVPPHDSTISTTASASATSGARSNDQRKPPLSDAQRRMRFPRADLSKPITEEEHDRYAAYLHGENKITEMHNIPPKSRLFIGNLPLKNVSKEDLFRIFSPYGHIMQINIKNAFGFIQFDNPQSVRDAIECESQEMNFGKKLILEVSSSNARPQFDHGDHGTNSSSTFISSAKRPFQTESGDMYNDDNGAGYKKSRRHTVSCNIFVKRTADRTYAIEVFNRFRDGTGLETDMIFLKPRMELGKLINDAAYNGVWGVVLVNKTHNVDVQTFYKGSQGETKFDEYISISADDAVAIFNNIKNNRNNSRPTDYRAMSHQQNIYGAPPLPVPNGPAVGPPPQTNYYQGYSMPPPQQQQQQPYGNYGMPPPSHDQGYGSQPPIPMNQSYGRYQTSIPPPPPQQQIPQGYGRYQAGPPPQPPSQTPMDQQQLLSAIQNLPPNVVSNLLSMAQQQQQQPHAQQQLVGLIQSMQGQAPQQQQQQLGGYSSMNSSSPPPMSTNYNGQNISAKPSAPPMSHQPPPPQQQQQQQQQQQQQQQQPAGNNVQSLLDSLAKLQK | no binding | binds | binds | 
2 | Myc-tagged nab3-11 RRM mutant (F371L-P374L) (protein, UniProt P38996 1-802) MSDENHNSDVQDIPSPELSVDSNSNENELMNNSSADDGIEFDAPEEEREAEREEENEEQHELEDVNDEEEEDKEEKGEENGEVINTEEEEEEEHQQKGGNDDDDDDNEEEEEEEEDDDDDDDDDDDDEEEEEEEEEEGNDNSSVGSDSAAEDGEDEEDKKDKTKDKEVELRRETLEKEQKDVDEAIKKITREENDNTHFPTNMENVNYDLLQKQVKYIMDSNMLNLPQFQHLPQEEKMSAILAMLNSNSDTALSVPPHDSTISTTASASATSGARSNDQRKPPLSDAQRRMRFPRADLSKPITEEEHDRYAAYLHGENKITEMHNIPPKSRLFIGNLPLKNVSKEDLFRIFSPYGHIMQINIKNAFGFIQLDNLQSVRDAIECESQEMNFGKKLILEVSSSNARPQFDHGDHGTNSSSTFISSAKRPFQTESGDMYNDDNGAGYKKSRRHTVSCNIFVKRTADRTYAIEVFNRFRDGTGLETDMIFLKPRMELGKLINDAAYNGVWGVVLVNKTHNVDVQTFYKGSQGETKFDEYISISADDAVAIFNNIKNNRNNSRPTDYRAMSHQQNIYGAPPLPVPNGPAVGPPPQTNYYQGYSMPPPQQQQQQPYGNYGMPPPSHDQGYGSQPPIPMNQSYGRYQTSIPPPPPQQQIPQGYGRYQAGPPPQPPSQTPMDQQQLLSAIQNLPPNVVSNLLSMAQQQQQQPHAQQQLVGLIQSMQGQAPQQQQQQLGGYSSMNSSSPPPMSTNYNGQNISAKPSAPPMSHQPPPPQQQQQQQQQQQQQQQQPAGNNVQSLLDSLAKLQK |  |  |  | binds
3 | Myc-tagged nab3-R331A RRM mutant (protein, UniProt P38996 1-802) MSDENHNSDVQDIPSPELSVDSNSNENELMNNSSADDGIEFDAPEEEREAEREEENEEQHELEDVNDEEEEDKEEKGEENGEVINTEEEEEEEHQQKGGNDDDDDDNEEEEEEEEDDDDDDDDDDDDEEEEEEEEEEGNDNSSVGSDSAAEDGEDEEDKKDKTKDKEVELRRETLEKEQKDVDEAIKKITREENDNTHFPTNMENVNYDLLQKQVKYIMDSNMLNLPQFQHLPQEEKMSAILAMLNSNSDTALSVPPHDSTISTTASASATSGARSNDQRKPPLSDAQRRMRFPRADLSKPITEEEHDRYAAYLHGENKITEMHNIPPKSALFIGNLPLKNVSKEDLFRIFSPYGHIMQINIKNAFGFIQFDNPQSVRDAIECESQEMNFGKKLILEVSSSNARPQFDHGDHGTNSSSTFISSAKRPFQTESGDMYNDDNGAGYKKSRRHTVSCNIFVKRTADRTYAIEVFNRFRDGTGLETDMIFLKPRMELGKLINDAAYNGVWGVVLVNKTHNVDVQTFYKGSQGETKFDEYISISADDAVAIFNNIKNNRNNSRPTDYRAMSHQQNIYGAPPLPVPNGPAVGPPPQTNYYQGYSMPPPQQQQQQPYGNYGMPPPSHDQGYGSQPPIPMNQSYGRYQTSIPPPPPQQQIPQGYGRYQAGPPPQPPSQTPMDQQQLLSAIQNLPPNVVSNLLSMAQQQQQQPHAQQQLVGLIQSMQGQAPQQQQQQLGGYSSMNSSSPPPMSTNYNGQNISAKPSAPPMSHQPPPPQQQQQQQQQQQQQQQQPAGNNVQSLLDSLAKLQK |  |  |  | binds
4 | Myc-tagged nab3-S399A RRM mutant (protein, UniProt P38996 1-802) MSDENHNSDVQDIPSPELSVDSNSNENELMNNSSADDGIEFDAPEEEREAEREEENEEQHELEDVNDEEEEDKEEKGEENGEVINTEEEEEEEHQQKGGNDDDDDDNEEEEEEEEDDDDDDDDDDDDEEEEEEEEEEGNDNSSVGSDSAAEDGEDEEDKKDKTKDKEVELRRETLEKEQKDVDEAIKKITREENDNTHFPTNMENVNYDLLQKQVKYIMDSNMLNLPQFQHLPQEEKMSAILAMLNSNSDTALSVPPHDSTISTTASASATSGARSNDQRKPPLSDAQRRMRFPRADLSKPITEEEHDRYAAYLHGENKITEMHNIPPKSRLFIGNLPLKNVSKEDLFRIFSPYGHIMQINIKNAFGFIQFDNPQSVRDAIECESQEMNFGKKLILEVASSNARPQFDHGDHGTNSSSTFISSAKRPFQTESGDMYNDDNGAGYKKSRRHTVSCNIFVKRTADRTYAIEVFNRFRDGTGLETDMIFLKPRMELGKLINDAAYNGVWGVVLVNKTHNVDVQTFYKGSQGETKFDEYISISADDAVAIFNNIKNNRNNSRPTDYRAMSHQQNIYGAPPLPVPNGPAVGPPPQTNYYQGYSMPPPQQQQQQPYGNYGMPPPSHDQGYGSQPPIPMNQSYGRYQTSIPPPPPQQQIPQGYGRYQAGPPPQPPSQTPMDQQQLLSAIQNLPPNVVSNLLSMAQQQQQQPHAQQQLVGLIQSMQGQAPQQQQQQLGGYSSMNSSSPPPMSTNYNGQNISAKPSAPPMSHQPPPPQQQQQQQQQQQQQQQQPAGNNVQSLLDSLAKLQK |  |  |  | binds
